Measurements as given in publication PMC10668032.
The other results are listed elsewhere or left out. At the low end of the ranking, values are background and their order means little.

Biological target: SIX1 homeodomain (reference allele) (UniProt Q15475)
Experiment: universal protein binding microarray
Conditions: Universal all-10-mer PBM (8x60K, AMADID 030236), 300 nM GST-tagged protein, Alexa Fluor 488 anti-GST; buffer, salt, pH and temperature not stated; high values mean tight binding; most listed sequences are background and not binding sites; double strand, one strand shown

Sequence | binding signal [E-score]
TCGGTGCA | -0.0969
ATACATAG | 0.177
CCATCCTA | 0.0631
CCGGAGCG | -0.185
GGTGTTAC | 0.269
ACCAACTG | 0.000585
CCAATAGC | -0.0933
GCAACGAC | -0.13
ATCGCGGG | 0.291
ACCCACGG | -0.0163
GTAAGTTA | -0.213
AGTGGAGA | -0.0298
CTGGCATA | 0.228
TATGTTCA | 0.0594
AGGATGTC | 0.0999
CCTTTCGA | -0.0682
CGCCCTGC | 0.0146
AGTAAACC | 0.0274
AAGAGCAC | -0.0323
ATACCCCC | 0.454
GCTATCCC | 0.281
AAGCCCGG | -0.035
CCACGGGA | -0.0263
GAAGCAGA | -0.158
TACCCGGA | 0.332

Sequence | binding signal [E-score]
GTTACCTA | -0.0619
GCTGCATA | 0.0234
AAAACAAT | -0.0863
CTGCGTAA | -0.278
TAAATCCA | -0.0787
AGCCTGAG | -0.0766
CTAACTAC | 0.00143
ACTGGTAG | 0.0162
GTGGGTTA | -0.00241
CAAGTTGG | -0.139
GCCCGTAA | -0.221
CATCGTCG | -0.249
TCTGGCCA | -0.0767
ATGCTTAG | -0.245
AATCCAGA | 0.0874
AGGACGGA | -0.0723
AGCTATGC | -0.117
CTTTCGCA | -0.279
CAGCGTAC | -0.146
AAGGGATA | 0.37
ATAATAGA | -0.0292
ACGTGGGC | -0.0255
ACAAACCA | -0.174
CTTTGTAA | -0.11
AGCATGCG | 0.0616

Sequence | binding signal [E-score]
CAACCCGA | -0.0372
GATAATGA | 0.174
CGAATTGC | -0.319
TACTGAAA | 0.0387
AATTATCG | -0.0423
CAGGGGGA | 0.106
TAACTCAA | -0.238
CGCTCCAC | -0.247
CACACTGC | -0.173
GTGATAAC | 0.116
AGGTTTTG | -0.206
ACTTGATC | 0.269
CGGGATCC | 0.393
ATTTCAAC | -0.11
CTGAGTAC | -0.0488
AATCTATG | 0.0729
ACATGACC | -0.144
GAAGCAGC | -0.228
GTTTTGAA | -0.196
ACAGAAAT | -0.0575
AAACAATG | -0.35
CCTAATAA | -0.0836
GAGTCCAA | -0.197
AATATAGA | 0.227
AGTTGTCA | -0.0631

Sequence | binding signal [E-score]
GATCATCA | 0.34
GCCGGCAA | -0.292
ACGGCATG | -0.0243
ACGTCGAC | -0.226
CCCGGGGC | 0.0596
CCAACTGA | 0.0817
CAGTACCA | -0.0671
ACGCGAAT | 0.0356
CATAAGAA | 0.178
CCTATAGA | 0.157
ATATATGG | 0.334
ATAGTGCC | 0.0903
AGATAGTA | 0.24
GAGCTATA | 0.0653
CCCCCTCA | -0.0728
GCACGGCC | -0.154
GTAGGCTA | 0.0848
AGAAACTC | -0.242
GAGGAGGA | 0.0908
CGCACAGA | -0.063
ATTTTAAA | -0.0377
CCTATTCA | -0.0425
TCCCCAAA | 0.00539
AATGTTAG | -0.283
AAATAAGA | -0.00547

Sequence | binding signal [E-score]
AAGGGACG | -0.16
AGCGGTTG | -0.0108
AAGCTTAC | -0.286
AGGCAGAT | 0.258
CACAGCCC | -0.295
GTATCACA | 0.476
AAATAGGC | -0.164
TACGTCCA | -0.195
TGTCCGAA | -0.129
CAATTAAA | -0.091
ATCACTTA | 0.273
AACACGAT | 0.176
CAGTATAC | 0.295
CGACTGAA | -0.156
CCGCCAGC | -0.105
CCGCATGA | -0.0385
CTTTAGTA | -0.048
AATGTTCG | -0.175
ACTCCTAA | -0.00136
CCATCCGG | 0.235
CGGAGTAA | 0.0438
CAGAGCGA | -0.0744
CTTTACAC | 0.0513
ACGAGCGC | -0.215
GCACTATA | 0.17

Sequence | binding signal [E-score]
GCACAAGA | -0.137
GCGCCCCA | -0.156
CATGCAGA | -0.0909
GAACCGGA | 0.0927
ATTGCCTC | 0.118
AGCCGGCA | -0.261
ATCCTGGA | 0.284
CGACTAGA | -0.0874
TACGACAA | 0.107
CATAATGA | 0.0842
CCGTCAGG | -0.159
ACCGAGAT | 0.265
ATAGACTC | 0.0181
ACGTGCGA | -0.0617
GTAAACAA | 0.0393
GATCGACA | 0.115
AAGGCCCC | -0.166
ACGAGGTC | -0.108
ACGCACTC | -0.203
CCGCACAA | 0.0576
CCATTTGA | -0.0936
CACAAAAG | 0.0396
CCGTTCTC | -0.0683
GGCCATTA | -0.118
GCGGGCAC | -0.01

Sequence | binding signal [E-score]
CCATGCCC | -0.0766
ACCACCCG | 0.0243
CAATATCG | 0.296
ACAAGTAT | 0.247
AGGACTAG | -0.0994
CGATGGGA | -0.0469
CCCTGGCA | 0.0089
CAGTGAGG | -0.0897
AAAATTAA | -0.162
ACACTTGA | -0.0787
AGGCCACC | -0.182
AAACTGAT | 0.149
CGAGAGAA | -0.117
CCAAAAGA | 0.0162
AGAGTCCG | -0.188
GATTAGTA | 0.149
CGATAAGA | 0.124
GGGGGCAA | -0.285
CGTTTTTA | -0.118
AGCTTAGG | -0.115
AAGATACC | 0.426
AACCGATA | 0.41
AGCTGGTG | 0.0343
CCTGTGGA | 0.0586
CTGTGTGC | -0.142

Sequence | binding signal [E-score]
ACGTACGA | -0.231
AACTCAAC | -0.0659
CGGAAGTC | -0.0905
CCCCTCTC | 0.161
TGACGCAA | -0.159
GGAGGAAA | -0.134
GCACAAAA | -0.232
GACCTAAC | -0.0985
AAACAACG | -0.086
GCTGGTTA | -0.279
CATGTGCG | -0.0911
AATCTATA | 0.167
ACGTAATA | 0.16
CCGGCTAC | -0.0626
GAAACCCA | 0.096
ATGTAAGA | 0.0514
GATAAGCA | 0.172
CCCTGGCC | 0.0892
AGCCGCCC | 0.0227
CGGTAGAG | 0.0841
ACTTAAAG | -0.16
ATCCGCGC | 0.292
TCGCATAA | 0.0663
AGGCTAGG | -0.106
AGAGACGG | 0.102

Sequence | binding signal [E-score]
GAAGTTAC | -0.108
GTCGAGAC | 0.106
ACTAGAAA | -0.298
CTTCTAGC | -0.226
AGCCACAA | -0.177
AAAGAACA | -0.174
CAGTCTAA | -0.0571
CGGCTAAG | -0.0262
ATGACTGA | -0.0432
CTACCCCC | 0.0291
GATTTCCC | -0.107
CAGTGAGC | 0.0565
ACTGAGAC | 0.0937
CTGGCCTC | -0.0549
AACATTCT | -0.251
CGCTTTGC | -0.207
TACCTCAA | -0.0245
CGCAAGAG | -0.093
CGCAAAAG | -0.231
